The source of these data is the supplement of paper PMC5655136.

These are enrichments in a pooled selection; single values are uncertain.
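Note: shRNA barcodes quantified by deep sequencing of PCR amplicons from cellular DNA, counts expressed as percent of each subpool, ratio averaged over two biological duplicates.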

The subject of the first series is NB7. Put plainly: fold depletion of shRNA, plasmid library share / infected cells without Dox share (9 days) (ratio); higher = more depleted after infection (more toxic, leaky expression from a Tet-inducible vector; NB7 is a neuroblastoma line without caspase-8). The conditions noted are these: shRNA pool: CD95L ORF + CD95L 3'UTR + Venus libraries.
For the sequence TGCTTCCTGACAATCAACTCT, the “fold depletion of shRNA” value came out at 13.4.
As for AGAGGCTTGCATAATAAGCTA, the “fold depletion of shRNA” value is 1.31.
On the same count and under the same terms, next, GCTGAAAGAGGCCAATGCCCC: 1.73; ATGGTCCTGCTGGAGTTCGTG: 1.58.
Same read-out and setting: next, CCCAGGATCTGGTGATGATGG: 1.73; GAGCAAGGGCGAGGAGCTGTT: 1.61; CCTGAGCCACAAGGTCTACAT: 0.489.
The same measure, in the same setting: next, GATTGAAAAGGACACCTTTTA: 0.815; CAACGTATCTGAGCTCTCTCT: 1.81; GTGCAATTGTAGGGGTGTGTG: 2.2.
As for GGATCACTCTCGGCATGGACG, the “fold depletion of shRNA” value is 1.77.
Same read-out and setting: next, TGTCCGGCGAGGGCGAGGGCG: 2.1; TAATAAAAAGTATATGTTAGG: 0.51; AACTCAAGGTCCATGCCTCTG: 4.34.
In the case of ATGTCAACGTATCTGAGCTCT, the “fold depletion of shRNA” value turned out to be 0.776.
Take TCCTAACACAGCATGTGTATT: the “fold depletion of shRNA” value stood at 1.45.
Still for that read-out and setting: with CCGCATCGAGCTGAAGGGCAT the figure was 0.908; with GTACATATTAGGAAAATATGG, 1.44.
Same read-out and setting: next, GTAATAAAAAGTATATGTTAG: 0.329.
In the case of ATTTTGAATGCTTCCTGACAA, the “fold depletion of shRNA” value came to 1.3.
On the same count and under the same terms, with AGAGTATTTAGGCAGATTGAA the figure was 1.88; with GCTGATCATTTATATGTCAAC, 1.06.
For CCACAAGGTCTACATGAGGAA, the “fold depletion of shRNA” value was 1.49.
Still for that read-out and setting: with TTCAATTACCCATATCCCCAG the figure was 0.949.
The same measure, in the same setting: next, TCAACTCTAATAGTGCTTAAA: 0.485.
Same read-out and setting: with CACCACCGCCACCGCCACCAC the figure was 0.619; with CCTTTTAACTCACCTCTCAAG, 2.58; with TGAGCAAGGGCGAGGAGCTGT, 0.5.
For TCTACACTCATCTTAGTGCCT, the “fold depletion of shRNA” value was 1.77.
Still for that read-out and setting: with GGGTCAATCTTGCAACAACCT the figure was 2.46; with ATTTTTGTGAAATGAAAACAT, 2.1; with TTAGGAAAATATGGGTTGCAT, 5.34.
With GATGCCACCTACGGCAAGCTG, the “fold depletion of shRNA” value turned out to be 1.91.
The same measure, in the same setting: with TCCTGACAATCAACTCTAATA the figure was 2.16; with AAGGGCGAGGAGCTGTTCACC, 0.559; with CTCATTTCATTCCTAACACAG, 2.77.
Take GGCATCGACTTCAAGGAGGAC: the “fold depletion of shRNA” value was found to be 1.64.
On the same count and under the same terms, with ACAGCATCATCTTTGGAGAAG the figure was 1.14; with CACCCTGGTGAACCGCATCGA, 1.41.
On to GACTAAAGAGAGAATGTAGAT, for which the “fold depletion of shRNA” value is 0.707.
On to ACCTTGAGACCACAGGGTTCA, for which the “fold depletion of shRNA” value was determined as 0.995.
Still for that read-out and setting: with TCTGGTTGCCTTGGTAGGATT the figure was 0.985.
Same read-out and setting: next, GTCCGCCATGCCCGAAGGCTA: 1.46; GGAGGCCACCACCACCACCGC: 11.6; TCCGCCATGCCCGAAGGCTAC: 2.36.
For the sequence TGTGTCTCCTTGTGATGTTTT, the “fold depletion of shRNA” value was determined as 2.09.
For the sequence TGGACCTTGAGACCACAGGGT, the “fold depletion of shRNA” value turned out to be 0.701.
Same read-out and setting: next, TTTAACAGGCAAGTCCAACTC: 0.807.
With GGAAGATGATGAGCTACTGCA, the “fold depletion of shRNA” value was 2.08.
Turning to GGTTGTGACCTGAGGATTTAA, the “fold depletion of shRNA” value worked out at 0.337.
On the same count and under the same terms, with TAGGGGTGTGTGTGTGTGTGT the figure was 1.17.
Still for that read-out and setting: with TAACTCACCTCTCAAGGTGGG the figure was 0.693; with GAAGGCTACGTCCAGGAGCGC, 0.488.
Turning to AGCAGAAGAACGGCATCAAGG, the “fold depletion of shRNA” value was 2.28.
In the case of ATGGAGGAATATGACGGAAGA, the “fold depletion of shRNA” value came out at 1.85.
Turning to TTTTCCTATAATATAATAAAT, the “fold depletion of shRNA” value amounted to 1.14.
Take TGTTTTGGGGACTCATTTCAT: the “fold depletion of shRNA” value is 3.3.
For the sequence ATTTAACAGGCAAGTCCAACT, the “fold depletion of shRNA” value worked out at 1.83.
The same measure, in the same setting: with CAGCTCTTCCACCTACAGAAG the figure was 0.73; with CACCGCCGACAAGCAGAAGAA, 0.934.
Same read-out and setting: next, GGTGGTGCCCATCCTGGTCGA: 0.676; CTTTGGAGAAGCAAATAGGCC: 1.23.
On the same count and under the same terms, next, CCAGGTGTTCTACACTCATCT: 3.22; CACCTTTTAACTCACCTCTCA: 0.557.

The series is the same for the next values; noted with them: shRNA pool: CD95 ORF + CD95 3'UTR + Venus libraries.
For the sequence ATCTTAATGGCCTAATGCACC, the “fold depletion of shRNA” value came to 1.39.
As for TGAAGAGCCAACATATTTGTA, the “fold depletion of shRNA” value is 0.852.
Turning to GAATCAATAGAAGAAGCTATG, the “fold depletion of shRNA” value is 1.98.
Same read-out and setting: with ATGGTCCTGCTGGAGTTCGTG the figure was 1.52.
Still for that read-out and setting: with CTGGATTTAGGAATTGCTCTT the figure was 4.35.
The same measure, in the same setting: next, TCTCCAACTTTAAATCCTGAA: 0.685.
For the sequence GGGTACATTTTATCATTTATT, the “fold depletion of shRNA” value stood at 1.1.
On the same count and under the same terms, with GAGCAAGGGCGAGGAGCTGTT the figure was 1.05.
For the sequence CAAGGTTCTCATGAATCTCCA, the “fold depletion of shRNA” value was determined as 2.31.
In the case of CTTCTTTTGCCAATTCCACTA, the “fold depletion of shRNA” value was found to be 1.01.
With ATGTGAACACTGTGACCCTTG, the “fold depletion of shRNA” value came to 1.71.
TCTGCCATAAGCCCTGTCCTC: the “fold depletion of shRNA” value amounted to 0.917.
The same measure, in the same setting: with CCACTTTGCCTCTAAATTACC the figure was 2.6; with TGTCCGGCGAGGGCGAGGGCG, 1.82.
Take GAAAACATGCAGAAAGCACAG: the “fold depletion of shRNA” value stood at 0.558.
In the case of TCTACTGTATGTGAACACTGT, the “fold depletion of shRNA” value was 1.99.
Take CTGGCTGTAAATACTGCTTGG: the “fold depletion of shRNA” value turned out to be 1.38.
Same read-out and setting: with TTGGGTGAAGAGAAAGGAAGT the figure was 1.19.
The same measure, in the same setting: with CCGCATCGAGCTGAAGGGCAT the figure was 1.54.
TGTGAAGATAGTTATAAACTG: the “fold depletion of shRNA” value came out at 0.971.
The same measure, in the same setting: next, GAATGTAATCAGTGTATGTTA: 0.907; CTCAAAACTACCTACTTCTTT: 1.81; TTATAATGTTTGACTATTATA: 0.741.
As for ATGAACCAGACTGCGTGCCCT, the “fold depletion of shRNA” value was 0.878.
Turning to CATGAACCCATGTTTGCAATC, the “fold depletion of shRNA” value amounted to 3.16.
With GTGTATGCAGAGGATGAAAGA, the “fold depletion of shRNA” value is 2.39.
Regarding AAAGTAGCTTTGTGACATGTC, the “fold depletion of shRNA” value was determined as 0.718.
The same measure, in the same setting: with ATTTTACCATATTTCTAAACT the figure was 0.716.
On the same count and under the same terms, with TTGACTTGAGTAAATATATCA the figure was 0.686; with TGAGCAAGGGCGAGGAGCTGT, 0.558.
Take CTCCAAGGGATTGGAATTGAG: the “fold depletion of shRNA” value worked out at 1.14.
For the sequence CTGAGAAGATCATATTTATGT, the “fold depletion of shRNA” value was found to be 0.875.
As for AGTTGAGACTCAGAACTTGGA, the “fold depletion of shRNA” value was 1.02.
Regarding GATGCCACCTACGGCAAGCTG, the “fold depletion of shRNA” value was determined as 3.26.
Still for that read-out and setting: next, AGGAGAGTATTACTAGAGCTT: 1.71.
Still for that read-out and setting: with AGTGTATGCAGAGGATGAAAG the figure was 1.94.
The same measure, in the same setting: with CTTTTGCCAATTCCACTAATT the figure was 1.08.
For AGTTCAACTGCTTCGTAATTG, the “fold depletion of shRNA” value worked out at 2.43.
The same measure, in the same setting: with AGGAAGACTGTTACTACAGTT the figure was 1.53; with AAGGGCGAGGAGCTGTTCACC, 0.961; with AGCAGATACCTGGAACCACCT, 4.06.
With CAAGACTGCCCTTAGAAATTC, the “fold depletion of shRNA” value came out at 3.85.
Regarding GGCATCGACTTCAAGGAGGAC, the “fold depletion of shRNA” value is 1.16.
In the case of ATGAAAGATTAAGATTATGCT, the “fold depletion of shRNA” value came to 0.875.
Consider CACCCTGGTGAACCGCATCGA, for which the “fold depletion of shRNA” value is 1.79.
On the same count and under the same terms, next, TACAAATGTCTATCCACAGGC: 1.03.
Still for that read-out and setting: with TCAAAGATGATAAAATAGATT the figure was 1.05.
As to AATATCAGTTACTGAACAGGC, the “fold depletion of shRNA” value was found to be 1.48.
For the sequence GAAATATCAGTTACTGAACAG, the “fold depletion of shRNA” value stood at 2.06.
Still for that read-out and setting: next, AGCTATGACCTTTTGCTGAAA: 1.09; GAAATGAAATCCAAAGCTTGG: 0.982.
The same measure, in the same setting: next, GTCCGCCATGCCCGAAGGCTA: 0.905.
As to TCCGCCATGCCCGAAGGCTAC, the “fold depletion of shRNA” value came out at 1.74.
On the same count and under the same terms, next, AAGTGCAGATGTAAACCAAAC: 2.22.
In the case of ATGAATCTCCAACTTTAAATC, the “fold depletion of shRNA” value was 0.725.
Still for that read-out and setting: next, GCTCAAAACTACCTACTTCTT: 0.872; AAGCCAAAATAGATGAGATCA: 1.96; TGTTCGAAAGAATGGTGTCAA: 0.793.
The same measure, in the same setting: with AATGTGAACATGGAATCATCA the figure was 1.22.
Regarding GTCCCATGTAAAACCTGCTAC, the “fold depletion of shRNA” value worked out at 6.66.
Still for that read-out and setting: next, GAAGGCTACGTCCAGGAGCGC: 1.4; TTAAGAAATAATATTTATATT: 1.13; AAATATCACCAAAAAATACTT: 1.11.
Still for that read-out and setting: with AATCAAAGATGATAAAATAGA the figure was 0.931.
The same measure, in the same setting: with GAAGACTGTTACTACAGTTGA the figure was 1.8; with CCGGACCCAGAATACCAAGTG, 0.71.
Regarding TGAAATCCAAAGCTTGGTCTA, the “fold depletion of shRNA” value amounted to 11.7.
On the same count and under the same terms, next, GTACACAGACAAAGCCCATTT: 1.54; CACCGCCGACAAGCAGAAGAA: 0.971; GGTGGTGCCCATCCTGGTCGA: 1.94.
Still for that read-out and setting: next, CTCAGAGAAAGTAGCTTTGTG: 3.45.
Take CATCTGGATTTAGGAATTGCT: the “fold depletion of shRNA” value came out at 0.931.
On the same count and under the same terms, with AACTTCATCAAGAGTAAATGC the figure was 1.09.
